This is an account of results in the supplement of paper PMC10126150.

Values marked as one replicate rest on one cluster of the flow cell; about a third of the high ones do not repeat.

The test system of this series is ATP. Kind of series: switch fluorescence ratio, 500 uM ATP over buffer (Cy3 cluster intensity, sum of 5 cycles each) (fold (ratio)); higher = stronger signal-on switching upon ATP binding; sequences stand for … in TCGTCGGCAGCGTCAGATGTGTATAAGAGACAGTTTTTTTTTTTTTTTTTTTTTTTTT…TC. As to conditions: aptamer strand: ATP DNA aptamer (quencher-CACCTGGGGGAGTATTGCGGAGGAAGG + anchor), 100 nM annealed; ATP concentration: 500 uM; one replicate. In short, it runs like this:
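For every switch-domain sequence, the fluorescence ratio is the mean of per-cluster values, each being summed target-cycle Cy3 intensity over summed buffer-cycle Cy3 intensity. Clusters outside 100-1000 RFU were excluded. On a modified Illumina MiSeq flow-cell, the Cy3-labelled switching-strand clusters were annealed to 100 nM quencher-labelled ATP aptamer, imaged in selection buffer and then after 15 min with 500 uM ATP at 22 °C. Five such cycles were run, with NaOH stripping and re-annealing between them.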
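Further: ATP exposure 15 min at 22 °C before imaging.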

Take ATCGGAACGA: the switch fluorescence ratio stood at 1.01.

Turning to TGCTGCAGCT, the switch fluorescence ratio worked out at 0.98.

As to ATCTTTCTGC, the switch fluorescence ratio turned out to be 1.

Take CAGGGGTG: the switch fluorescence ratio was determined as 1.09.

In the case of CAGTATTACA, the switch fluorescence ratio came out at 1.

In the case of GGAGCGGTAT, the switch fluorescence ratio was found to be 1.32.

As for TATAGAACGA, the switch fluorescence ratio turned out to be 1.03.

As to TTCCAACAGC, the switch fluorescence ratio turned out to be 1.05.

With CCTACCGGA, the switch fluorescence ratio is 1.19.

As for TATTTCCTTT, the switch fluorescence ratio is 0.978.

Take AATGCAGCAG: the switch fluorescence ratio is 0.992.

For the sequence CGTCCGTATA, the switch fluorescence ratio stood at 3.29.

For TGCAGTTA, the switch fluorescence ratio came to 0.962.

Take TGGTTTGCTT: the switch fluorescence ratio amounted to 1.06.

As for AGAGATTAG, the switch fluorescence ratio came out at 1.01.

In the case of GGCTAGGGCG, the switch fluorescence ratio was found to be 1.03.

Consider TAATAACGCT, for which the switch fluorescence ratio stood at 0.984.

Turning to TACTACGGGC, the switch fluorescence ratio worked out at 0.964.

Take CTTCTTAGAT: the switch fluorescence ratio came out at 1.01.

With CGCGACGGAC, the switch fluorescence ratio worked out at 1.4.

As for CCGCGGGTCT, the switch fluorescence ratio worked out at 1.25.

With GGCTTGGTCC, the switch fluorescence ratio came to 1.07.

With GGGGGTTAA, the switch fluorescence ratio amounted to 1.03.

On to TTGATGAGCT, for which the switch fluorescence ratio is 1.01.

With GACTGAGAAA, the switch fluorescence ratio was 1.03.

In the case of CCACGTCTTA, the switch fluorescence ratio amounted to 1.02.

For GTATTTGATT, the switch fluorescence ratio turned out to be 0.93.

In the case of CCCATTTTGG, the switch fluorescence ratio worked out at 0.978.

Consider TCCGGGGAGT, for which the switch fluorescence ratio was found to be 1.08.

For AGGGGATAA, the switch fluorescence ratio is 1.01.

As for AGATCTAAC, the switch fluorescence ratio came out at 0.965.

Consider ATAAACCTAG, for which the switch fluorescence ratio was 1.06.

Take ATGAAGATAG: the switch fluorescence ratio amounted to 1.01.

For the sequence GGAATGGGAC, the switch fluorescence ratio worked out at 0.99.

Regarding AACCTGCAGT, the switch fluorescence ratio amounted to 1.01.

ACCACCCGGC: the switch fluorescence ratio came out at 1.1.

Regarding CATTCACGCC, the switch fluorescence ratio amounted to 1.13.

Turning to AGATGGAGTG, the switch fluorescence ratio amounted to 0.95.

CCGGTAACAG: the switch fluorescence ratio was determined as 1.11.

For ATTGTGTTTC, the switch fluorescence ratio came to 1.02.

As to GAGTGAGATG, the switch fluorescence ratio was found to be 1.01.

Regarding CAATAGAGCG, the switch fluorescence ratio stood at 1.01.

In the case of ACTTGGAAGC, the switch fluorescence ratio amounted to 1.04.

With AAGGTACGAT, the switch fluorescence ratio is 1.01.

As for TAGGTAAATA, the switch fluorescence ratio stood at 0.98.

Take ACGGACCGGA: the switch fluorescence ratio stood at 1.08.

Take GTTTTACGTA: the switch fluorescence ratio was 1.02.

Turning to AGAATTCATT, the switch fluorescence ratio was determined as 1.02.

On to AAAACCATCC, for which the switch fluorescence ratio stood at 2.1.

For TACCCAATTT, the switch fluorescence ratio came to 1.05.

Regarding ATAGTGAGAT, the switch fluorescence ratio worked out at 1.01.

For the sequence TAGTCAAAGA, the switch fluorescence ratio is 1.01.

Take TGGCACTGGG: the switch fluorescence ratio amounted to 1.04.

On to GGGGAAATCG, for which the switch fluorescence ratio stood at 0.964.

With CAGCGCCTTG, the switch fluorescence ratio was 0.971.

Consider GGTGTATTC, for which the switch fluorescence ratio was 0.986.

TCGCTGGTTA: the switch fluorescence ratio amounted to 0.985.

For CGCCGGCGCC, the switch fluorescence ratio was found to be 1.03.

Consider CCTTCCTGAG, for which the switch fluorescence ratio was 2.73.

With AAAAGTACAG, the switch fluorescence ratio stood at 1.03.

Take ACTCAGGGCA: the switch fluorescence ratio worked out at 1.07.

Take CGTGAGACTG: the switch fluorescence ratio amounted to 0.923.

Consider ACGTGGCGAC, for which the switch fluorescence ratio was found to be 1.18.

Regarding AGCCTTTTAA, the switch fluorescence ratio came out at 1.01.

Turning to GCGTTAGGGA, the switch fluorescence ratio stood at 0.992.

On to CTACGGGCTC, for which the switch fluorescence ratio was determined as 1.2.

As to CGTAGTAGAG, the switch fluorescence ratio was 0.929.

In the case of GGGTCCTATC, the switch fluorescence ratio turned out to be 1.01.

As for TACATTGTTC, the switch fluorescence ratio turned out to be 1.05.

For ACACTTGACA, the switch fluorescence ratio worked out at 1.12.

As to GGCTGATGCG, the switch fluorescence ratio came out at 1.02.

CGTGACGAAC: the switch fluorescence ratio amounted to 1.06.

As for AAAAGGAAGC, the switch fluorescence ratio was 0.977.

In the case of CCGTAAAAGA, the switch fluorescence ratio was 1.09.

GTGTGTGGGT: the switch fluorescence ratio turned out to be 0.974.

Take TAATGACGGA: the switch fluorescence ratio was 0.992.

As to ACGGCTCCCG, the switch fluorescence ratio is 1.01.

On to CGTGTGGGTG, for which the switch fluorescence ratio turned out to be 1.04.

Take CCTTGGCTG: the switch fluorescence ratio is 1.03.

CTTATTAATG: the switch fluorescence ratio worked out at 1.

As to GTGTAGACAT, the switch fluorescence ratio came to 1.

As to TTGTTCTCGA, the switch fluorescence ratio turned out to be 1.02.

Consider GGCGATCCTT, for which the switch fluorescence ratio worked out at 1.01.

Consider GGGAATCAGG, for which the switch fluorescence ratio was 0.977.

As to CATGCGTCGG, the switch fluorescence ratio is 0.97.

As to GGGCTTGACC, the switch fluorescence ratio is 1.

Consider TTGGCTGGGG, for which the switch fluorescence ratio amounted to 0.965.

As to AAGGTTGTGA, the switch fluorescence ratio came out at 0.935.

As to CGTCGCTAAG, the switch fluorescence ratio was 1.08.

Regarding CGACTCAGTT, the switch fluorescence ratio was 1.06.

For ATCGATATG, the switch fluorescence ratio turned out to be 1.

As for GGAGCTTATG, the switch fluorescence ratio stood at 1.11.

As to ATAACTAATT, the switch fluorescence ratio is 1.05.

Regarding GCCGGAACTG, the switch fluorescence ratio stood at 1.09.

For the sequence TGAGGCTACT, the switch fluorescence ratio amounted to 1.09.

Take TGCTCTTATG: the switch fluorescence ratio was determined as 1.01.

In the case of CTTACACGAA, the switch fluorescence ratio is 1.02.

Turning to TAATTCGAAC, the switch fluorescence ratio stood at 0.999.

In the case of TGAGGTTATG, the switch fluorescence ratio was determined as 0.974.

In the case of CGCTTTAAAC, the switch fluorescence ratio came to 1.41.

For GACGTGCGTT, the switch fluorescence ratio was 1.03.

On to AACAAGATTA, for which the switch fluorescence ratio was determined as 0.991.

For the sequence TACATTTGTG, the switch fluorescence ratio was found to be 0.969.

On to AGGGTATCGA, for which the switch fluorescence ratio came to 0.988.

With GACCGACCGT, the switch fluorescence ratio was 1.37.

As to ACTGAAATTG, the switch fluorescence ratio was found to be 1.

Take GCTCCTAGTA: the switch fluorescence ratio was found to be 1.03.

As to CGCCCTTGGT, the switch fluorescence ratio was found to be 1.14.

For GACCCGCCGG, the switch fluorescence ratio worked out at 1.04.

For the sequence GTTTACATTT, the switch fluorescence ratio was 0.979.

On to TCGTTGATGG, for which the switch fluorescence ratio was 0.99.

On to AAAAGGAAAA, for which the switch fluorescence ratio was determined as 0.988.

With TTCGGGCAAA, the switch fluorescence ratio was 0.986.

With GCTTTTTATG, the switch fluorescence ratio was found to be 0.991.

With AAATGGACGG, the switch fluorescence ratio was found to be 1.03.

TGCGCTGTTG: the switch fluorescence ratio turned out to be 1.

As for CCGTAAGAT, the switch fluorescence ratio was 3.72.

For TAGACGGCC, the switch fluorescence ratio was 1.

As for GAACCGACGC, the switch fluorescence ratio is 2.93.

CCCGGCGGGA: the switch fluorescence ratio turned out to be 1.19.
